Source: paper PMC2918917 (New journal of chemistry = Nouveau journal de chimie, 2010)
Like-named read-outs stand apart in the source and are kept apart here.

Experiments:
[1] = target: T1, murine eIF4E (Mus musculus, UniProt P63073); conditions: for ΔG° binding energy: calculated from KAS, ΔG° = −RT ln KAS
[2] = target: T1, murine eIF4E; conditions: cited from earlier work; for KAS cap-eIF4E: equilibrium association constant, data from ref 10

With Nc1nc2c(ncn2[C@@H]2O[C@H](COP(=O)(O)OP(=O)(O)OP(=O)(O)OC[C@H]3O[C@@H](n4cnc5c(N)ncnc54)[C@H](O)[C@@H]3O)[C@@H](O)[C@H]2O)c(=O)[nH]1 [ApppG] the “ΔG° binding energy” value [1] was greater than -6.20 kcal/M.
With COC1C(O)[C@@H](COP(=O)(O)OP(=O)([S-])OP(=O)(O)OP(=O)(O)OC[C@H]2O[C@@H](n3cnc4c(=O)[nH]c(N)nc43)C(O)C2O)O[C@H]1n1c[n+](C)c2c(O)nc(N)nc21 (stereo partly shown) [compound 3, P1-(7,2'-O-dimethylguanosin-5'-yl) P4-guanosin-5'-yl (2-thiotetraphosphate)] the “ΔG° binding energy” value [1] was -11.33 ± 0.02 kcal/M.
In the case of COC1C(O)C(COP(O)(=S)OP(=O)(O)OP(=O)(O)OCC2OC(n3cnc4c(=O)[nH]c(N)nc43)C(O)C2O)OC1n1c[n+](C)c2c(=O)[nH]c(N)nc21 (stereo not shown) [m2^7,2'-OGpSppG (D1)], the “ΔΔG° difference versus its (D2) counterpart” value ([2]; triphosphate series) is given as 0.59 kcal/mol and the “ΔΔG° difference versus m2^7,2'-OGpppG” value ([2]; triphosphate series) is given as 0.69 kcal/mol.
In the case of CO[C@@H]1[C@H](O)[C@@H](COP(=O)(O)OP(=O)([O-])OP(=O)(O)OP(=O)(O)OC[C@H]2O[C@@H](n3cnc4c(=O)[nH]c(N)nc43)[C@H](O)[C@@H]2O)O[C@H]1n1c[n+](C)c2c(O)nc(N)nc21 [m2^7,2'-OGppppG], the “ΔG° binding energy” value [1] is listed as -10.73 ± 0.04 kcal/M and the “KAS cap-eIF4E” value [2] is listed as 99.8 ± 6.0 ^e µM^−1.
In the case of COC1C(COP(=O)([O-])OP(=O)(O)OP(=O)(O)OP(=O)(O)OP(=O)(O)OCC2OC(n3cnc4c(=O)[nH]c(N)nc43)C(O)C2O)OC(n2c[n+](C)c3c(=O)[nH]c(N)nc32)C1O (stereo not shown) [m2^7,3'-OGp5G], the “KAS cap-eIF4E” value [2] is given as 299 ± 20 µM⁻¹.
In the case of CO[C@H]1[C@@H](O)[C@H]([n+]2cn(C)c3c(=O)[nH]c(N)nc32)O[C@@H]1COP(=O)([O-])OP(=O)(O)OP(=O)(O)OC[C@H]1O[C@@H](n2cnc3c(=O)[nH]c(N)nc32)[C@H](O)[C@@H]1O [m2^7,3'-OGpppG], the “ΔG° binding energy” value [1] is listed as -9.40 ± 0.02 kcal/M, the “binding affinity to eIF4E (KAS)” value [2] is listed as 10.2 ± 0.3 µM⁻¹ and the “KAS cap-eIF4E” value [2] is listed as 10.2 ± 0.3 ^e µM^−1.
For Cn1c[n+]([C@@H]2O[C@H](COP(=O)(O)OP(=O)([O-])OP(=O)(O)OC[C@H]3O[C@@H](n4cnc5c(=O)[nH]c(N)nc54)[C@H](O)[C@@H]3O)[C@@H](O)[C@H]2O)c2nc(N)[nH]c(=O)c21 [m^7GpppG], the “ΔG° binding energy” value [1] was -9.35 ± 0.03 kcal/M.
In the case of “P1-(7,2'-O-dimethylguanosin-5'-y l ) P4-guanosin-5'-yl (1-thiotetraphosphate) [4a]”, the “ΔG° binding energy” value ([1]; listed as m2^7.2'-OGpSpppG (D1)) is reported as -11.28 ± 0.01 kcal/M, the “ΔG° binding energy difference (lower than that of 4b)” value ([1]; versus 4b) is reported as 0.40 kcal/mol and the “ΔG° binding energy difference (lower than that of m2^7,2'-OGppppG)” value ([1]; versus m2^7,2'-OGppppG) is reported as 0.54 kcal/mol.
In the case of “P1-(7,2'-O-dimethylguanosin-5'-y l ) P4-guanosin-5'-yl (1-thiotetraphosphate) [4b]”, the “ΔG° binding energy” value ([1]; listed as m2^7.2'-OGpSpppG (D2)) is reported as -10.87 ± 0.02 kcal/M.
For “P1-(7,2'-O-dimethylguanosin-5'-y l ) P4-guanosin-5'-yl (1-thiotetraphosphate) [compound 4]”, the “ΔG° binding energy” value ([1]; listed as m2^7.2'-OGpSpppG (mix)) was -11.07 ± 0.02 kcal/M.
In the case of “P1-(7,2'-O-dimethylguanosin-5'-y l ) P4-guanosin-5'-yl (3-thiotetraphosphate) [2a]”, the “ΔG° binding energy” value ([1]; listed as m2^7.2'-OGpppSpG (D1)) is reported as -10.95 ± 0.01 kcal/M.
With “P1-(7,2'-O-dimethylguanosin-5'-y l ) P4-guanosin-5'-yl (3-thiotetraphosphate) [2b]” the “ΔG° binding energy” value ([1]; listed as m2^7.2'-OGpppSpG (D2)) was -10.95 ± 0.01 kcal/M.
With “P1-(7,2'-O-dimethylguanosin-5'-y l ) P4-guanosin-5'-yl (3-thiotetraphosphate) [compound 2]” the “ΔG° binding energy” value ([1]; listed as m2^7.2'-OGpppSpG (mix)) was -10.99 ± 0.01 kcal/M.
In the case of “P1-(7,2'-O-dimethylguanosin-5'-y l ) P4-guanosin-5'-yl (4-thiotetraphosphate) [1a]”, the “ΔG° binding energy” value ([1]; listed as m2^7.2'-OGppppSG (D1)) is reported as -10.83 ± 0.03 kcal/M.
In the case of “P1-(7,2'-O-dimethylguanosin-5'-y l ) P4-guanosin-5'-yl (4-thiotetraphosphate) [1b]”, the “ΔG° binding energy” value ([1]; listed as m2^7.2'-OGppppSG (D2)) is reported as -10.78 ± 0.03 kcal/M.
For m2^7,3'-OGppCH2pG, the “binding affinity to eIF4E (KAS)” value [2] is listed as 4.41 ± 0.2 µM⁻¹.
